According to the supplement of paper PMC10126150:
Values marked as one replicate rest on one cluster of the flow cell; about a third of the high ones do not repeat.

System: ATP
Assay: switch fluorescence ratio, 500 uM ATP over buffer (Cy3 cluster intensity, sum of 5 cycles each) (fold (ratio)); higher = stronger signal-on switching upon ATP binding; sequences stand for … in TCGTCGGCAGCGTCAGATGTGTATAAGAGACAGTTTTTTTTTTTTTTTTTTTTTTTTT…TC
Details: aptamer strand: ATP DNA aptamer (quencher-CACCTGGGGGAGTATTGCGGAGGAAGG + anchor), 100 nM annealed; ATP concentration: 500 uM; one replicate
How it was run: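 The quencher-labelled ATP aptamer, at 100 nM, was annealed to Cy3-labelled switching-strand clusters on a modified Illumina MiSeq flow-cell. The clusters were imaged in selection buffer, then after 15 min with 500 uM ATP at 22 °C, and this buffer/ATP cycle ran five times with NaOH stripping and re-annealing between runs. Per-cluster fluorescence ratios, summed target-cycle over summed buffer-cycle Cy3 intensity, were averaged per switch-domain sequence. Clusters outside 100-1000 RFU were excluded.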
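Also: ATP exposure 15 min at 22 °C before imaging.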

Sequence | switch fluorescence ratio
GGGTGTATGC | 0.969
TAGCTTAGTT | 1.01
CATCTGTATT | 1.07
TGAAGTCCGT | 1.02
AGGCCGGGCC | 0.992
CTATGTATAG | 0.966
TACTTTTGTG | 1
GTAAAGACGT | 1.63
CTGTATGTAG | 1.01
TCCTTTCATT | 0.968
ATTTCTCGTC | 1.02
CATATCCCAT | 1
GAAAGGCCCG | 1.05
TTTCTCAAAC | 1.01
ACACTGATGG | 0.995
ACGGGTAACT | 0.992
GCACTTAGTA | 1.03
ACCCTGCGTC | 1.07
ATGTTCATGA | 0.989
CTCAGCGTTC | 1.29
GTAGGCGAGG | 1.03
TCTCCCGCCT | 1.47
GGGGTAGTCT | 0.993
CAAGTTCCTG | 1.03
AGGACGTAAA | 1.08
TAGCCCGCGT | 1.04

Sequence | switch fluorescence ratio
CTTATCCATT | 1.03
CGTAAAAATT | 0.989
TAAGCAGGGA | 1.02
AAGAGATGGC | 1.19
TGGAGTAGT | 1.71
TCTGCTGGTG | 1.07
GACTGACCCA | 1.13
TTGCAGGTGC | 1.54
TGTAACCGTT | 0.97
CAGAAGAGGC | 1.06
CGGCCGGGCA | 1
CGGTTGAACC | 0.93
AACTTTCGGT | 0.97
GGGCGGCCTC | 1.01
AGGCATGGCG | 0.962
AGGAGAGTA | 0.958
TATCGCCCGA | 1.03
GGCCGAAAGG | 1.01
GACTATGCCG | 0.98
TTTATCAAGC | 1
TGCTGCGTTG | 0.979
GAGAAACTGC | 1.02
TTTGAGTTGA | 0.989
TCACGGTCCA | 1.01
AGATGGACGT | 1.02
AGTGGTTTCT | 0.983

Sequence | switch fluorescence ratio
GCTTAACAGA | 1.01
TTCACGAGAT | 1.06
CGTTACATTC | 1.04
GTGGTACAA | 1.03
AATCATTAGG | 1.01
GGCCCGGT | 1.01
CAGGCAGTGC | 1.09
ACGACCCGAG | 1.2
AGATTATTTG | 1.01
GGTTCCGATT | 1.01
TGAGTACTAA | 1.05
CTGTTATCCA | 1.01
TGTGAGTGGA | 1.03
TTGGAGTGAC | 0.996
CCAAGACTGC | 1.22
AGACGATCGT | 0.902
TTCTTCGTCA | 1.01
TTCAATTAAT | 0.961
ACGTGACTAC | 1.52
CTGTGAATGA | 0.951
GTTTCTAAGG | 0.978
CGTTGTCCGA | 1.06
CGACGGTGT | 1.01
TACGCACTTT | 1.28
GCTGGTGTTA | 1.04
TTCAAAGCAT | 3.85

Sequence | switch fluorescence ratio
CGAGTTTACG | 1.03
AAAAATCCGA | 1
GTCAGGCAGG | 1.02
AATGACCCGA | 1.07
CTGATGGGCG | 0.979
AGCGAGTATG | 1.01
TAGATTAGTC | 0.981
TTGGCAGACT | 1
AGGGTGCCCA | 0.938
CTCGGTCTAC | 2.06
CTACCGTAGA | 1.06
CAGAGGAGCG | 0.964
TATCAGGGA | 1.02
TATGCGATGC | 2.01
CTTTTGGGCT | 1.05
TGTATCCCCT | 1.04
TAGAATAGTT | 1.05
GAGTTACTCG | 1.04
TTATCAGATT | 1.02
CGTGTTGACC | 1.06
GGTAGCCAGT | 0.978
GGCTGGGGTT | 1.02
TCGTTTTGGC | 1.13
TTTCAATCTA | 1.04
AATATCGACT | 0.994
TGCGGACCTG | 1.06

Sequence | switch fluorescence ratio
TAGCCCCCAA | 1.04
CAGATAGTAA | 1.03
ACAGGAGACG | 1
AGGGGCCGTT | 1
CTTCTACTAG | 1.03
AAAGTAAACG | 0.998
AGGATCTGCT | 0.993
TAAGGTGGA | 0.988
CCCTCTGTGG | 1.02
CGGCTTCTAA | 0.953
ATCGCCC | 1
CCCTGGGCGC | 1.01
CTTAAGAAGG | 0.995
TAAGTTTCCA | 0.937
CTGCCCAATA | 3.33
ATTTTATTGA | 0.988
GAGCCGAGGG | 0.963
CCAAGAGGTG | 1.88
TGCACCACTG | 0.976
GGCCCACTGT | 1.02
CCGGTACCAT | 0.988
GCTTTAGAAC | 0.976
TCGTGAAAGC | 1.02
TGTGATGGCC | 1.03
CATGGAGGT | 1.01
TTTTGTACTC | 0.99

Sequence | switch fluorescence ratio
AATGCCATTT | 0.996
GTTCCTGGTG | 2.66
ACAGGCCACT | 1.05
GCCGGTACAG | 1
AGCACTGTGC | 1
CTGTACGGCC | 1.03
ACCCGGCTAG | 1.03
ACGGATCGCG | 1
ATGTGCTAAC | 0.961
CGATATAGA | 1.03
ATTTGGTTGC | 0.983
ACCAGTTATC | 1.02
GAGAGGTCT | 1.04
AACGTTCTTG | 1.02
ACATGGTATC | 0.989
TAATATCGTA | 0.993
TTATATTTC | 1.02
GGTGTCTTCG | 1
GGTGCGGTGT | 0.986
GCCAGGCCTA | 0.997
TTGTTCCTCA | 1.04
TCACATTGAA | 0.963
AATGGGTTAC | 1.06
